Results: patent publication US20200085917A1 (UNIVERSITY OF PITTSBURGH OF THE COMMONWEALTH SYSTEM OF …, published 2020)

Legend:
Assay in all cases: GST pull-down, LC-MS/MS
[1] = biological target: T1, Slc25a27_IPI:IPI00108998.1 (mouse, UniProt Q9D6D0 1-322)
T1 sequence (looked up): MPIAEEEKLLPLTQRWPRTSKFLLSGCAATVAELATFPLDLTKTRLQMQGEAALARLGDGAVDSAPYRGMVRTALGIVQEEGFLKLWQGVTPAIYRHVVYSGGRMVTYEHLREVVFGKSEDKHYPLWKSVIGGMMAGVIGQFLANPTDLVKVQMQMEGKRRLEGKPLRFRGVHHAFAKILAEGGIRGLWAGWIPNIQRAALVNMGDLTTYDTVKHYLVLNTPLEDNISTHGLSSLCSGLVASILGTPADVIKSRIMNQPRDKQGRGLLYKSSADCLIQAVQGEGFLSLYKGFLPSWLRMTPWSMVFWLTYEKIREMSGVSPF
Protocol: (§1) Extracts were spun at 14,000 r.p.m. at 4° C., and clarified supernatants were incubated with glutathione 4B Sepharose beads (GE Healthcare) at 4° C. overnight. The glutathione beads were then washed extensively with ice-cold TNE buffer, and bound proteins were subjected to SDS-PAGE followed by immunoblotting analysis. For the samples subjected to mass spectrometry, glutathione bead-bound proteins from equal amounts (600 μg) of mitochondria were further washed with high stringency RIPA buffer following TNE buffer wash to decrease nonspecific interaction. Proteins were then eluted from the glutathione beads in SDS sample buffer, separated by SDS-PAGE and stained with Coomassie. Proteins in the gel were digested with trypsin and analyzed by mass spectrometry (LC-MS/MS) at the Taplin Biological Mass Spectrometry Facility (Harvard Medical School, Boston, Mass.).

[2] = biological target: Slc1a2_IPI:IPI00230289.1 (mouse, UniProt P43006 1-572, limits assumed)
Chain of UniProt P43006 (P43006 whole entry): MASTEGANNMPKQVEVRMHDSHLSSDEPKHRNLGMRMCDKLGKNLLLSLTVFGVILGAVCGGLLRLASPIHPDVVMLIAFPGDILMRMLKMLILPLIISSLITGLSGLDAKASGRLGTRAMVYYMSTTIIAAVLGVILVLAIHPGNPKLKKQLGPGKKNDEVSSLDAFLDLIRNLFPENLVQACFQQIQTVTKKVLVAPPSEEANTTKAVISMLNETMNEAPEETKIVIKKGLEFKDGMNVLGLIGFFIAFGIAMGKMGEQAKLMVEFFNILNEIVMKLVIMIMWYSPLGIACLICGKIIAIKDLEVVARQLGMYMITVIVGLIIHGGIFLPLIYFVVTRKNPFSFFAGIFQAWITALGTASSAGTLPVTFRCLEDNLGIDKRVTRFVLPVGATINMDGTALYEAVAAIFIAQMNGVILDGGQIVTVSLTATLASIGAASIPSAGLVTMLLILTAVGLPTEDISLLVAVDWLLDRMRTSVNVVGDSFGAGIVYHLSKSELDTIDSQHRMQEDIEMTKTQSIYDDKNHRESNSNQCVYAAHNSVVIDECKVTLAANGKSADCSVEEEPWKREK
Protocol: as §1

[3] = biological target: T2, Coq3_IPI:IPI00467124.2 (mouse, UniProt Q8BMS4 87-370, limits assumed)
T2 sequence (looked up): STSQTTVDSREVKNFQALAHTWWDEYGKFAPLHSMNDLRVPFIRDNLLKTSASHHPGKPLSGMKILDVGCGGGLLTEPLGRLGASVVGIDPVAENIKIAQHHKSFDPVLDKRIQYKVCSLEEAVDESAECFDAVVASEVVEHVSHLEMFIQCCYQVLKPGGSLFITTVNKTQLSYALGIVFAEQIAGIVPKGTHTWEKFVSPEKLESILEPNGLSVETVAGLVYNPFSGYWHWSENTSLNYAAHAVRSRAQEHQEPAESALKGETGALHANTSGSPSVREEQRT
Protocol: as §1

[4] = biological target: T3, Dsg1c_IPI:IPI00331259.3 (mouse, UniProt Q7TSF0 50-911, limits assumed)
T3 sequence (looked up): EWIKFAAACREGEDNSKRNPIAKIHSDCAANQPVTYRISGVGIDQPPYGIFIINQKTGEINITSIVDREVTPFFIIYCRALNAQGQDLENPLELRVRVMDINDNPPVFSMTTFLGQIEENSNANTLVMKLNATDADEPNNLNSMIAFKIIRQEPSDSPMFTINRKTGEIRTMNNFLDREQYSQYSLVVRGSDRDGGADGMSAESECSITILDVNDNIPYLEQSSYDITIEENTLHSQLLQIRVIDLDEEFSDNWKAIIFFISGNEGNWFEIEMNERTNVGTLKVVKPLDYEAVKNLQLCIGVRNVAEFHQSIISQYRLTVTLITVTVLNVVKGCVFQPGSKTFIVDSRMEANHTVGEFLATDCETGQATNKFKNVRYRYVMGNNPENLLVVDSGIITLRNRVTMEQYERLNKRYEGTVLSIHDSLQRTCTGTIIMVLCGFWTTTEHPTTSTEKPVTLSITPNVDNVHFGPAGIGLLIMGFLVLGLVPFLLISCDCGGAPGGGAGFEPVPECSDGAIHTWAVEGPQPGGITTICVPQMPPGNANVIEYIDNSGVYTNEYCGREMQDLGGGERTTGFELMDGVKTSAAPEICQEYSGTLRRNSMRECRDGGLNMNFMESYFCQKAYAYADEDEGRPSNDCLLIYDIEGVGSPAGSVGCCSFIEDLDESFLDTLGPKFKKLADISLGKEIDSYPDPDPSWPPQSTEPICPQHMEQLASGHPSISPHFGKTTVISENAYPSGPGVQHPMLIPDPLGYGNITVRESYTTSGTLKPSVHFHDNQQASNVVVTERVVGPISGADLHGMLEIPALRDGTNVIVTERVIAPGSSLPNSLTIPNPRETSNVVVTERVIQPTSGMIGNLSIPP
Protocol: as §1

[5] = biological target: Gnb3_IPI:IPI00116938.1 (mouse, UniProt Q61011 1-340)
Chain of UniProt Q61011 (Q61011 whole entry): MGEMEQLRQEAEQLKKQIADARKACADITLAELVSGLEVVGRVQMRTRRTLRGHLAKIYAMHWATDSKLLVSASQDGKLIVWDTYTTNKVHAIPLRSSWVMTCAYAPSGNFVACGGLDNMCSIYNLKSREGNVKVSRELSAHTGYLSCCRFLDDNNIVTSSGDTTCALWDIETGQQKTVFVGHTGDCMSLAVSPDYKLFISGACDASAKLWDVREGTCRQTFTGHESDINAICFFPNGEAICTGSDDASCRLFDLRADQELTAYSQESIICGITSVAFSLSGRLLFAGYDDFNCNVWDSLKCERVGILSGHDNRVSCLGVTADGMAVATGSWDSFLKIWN
Protocol: as §1

[6] = biological target: T4, Pptc7_IPI:IPI00421081.3 (mouse, UniProt Q6NVE9 75-310, limits assumed)
T4 sequence (looked up): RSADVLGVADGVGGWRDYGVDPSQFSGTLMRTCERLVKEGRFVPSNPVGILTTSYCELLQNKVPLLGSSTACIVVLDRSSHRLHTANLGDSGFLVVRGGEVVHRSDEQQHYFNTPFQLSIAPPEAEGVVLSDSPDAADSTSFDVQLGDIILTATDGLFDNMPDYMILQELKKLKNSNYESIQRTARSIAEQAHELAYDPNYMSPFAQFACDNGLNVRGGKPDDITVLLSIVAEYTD
Protocol: as §1

[7] = biological target: T5, Chchd3_IPI:IPI00133562.1 (mouse, UniProt Q9CRB9 2-227)
T5 sequence (looked up): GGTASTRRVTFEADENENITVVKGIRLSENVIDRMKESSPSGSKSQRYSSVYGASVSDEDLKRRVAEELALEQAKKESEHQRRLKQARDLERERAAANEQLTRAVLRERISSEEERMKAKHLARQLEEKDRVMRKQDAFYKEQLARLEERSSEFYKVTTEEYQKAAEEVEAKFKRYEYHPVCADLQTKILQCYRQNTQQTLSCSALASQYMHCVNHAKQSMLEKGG
Protocol: as §1

binding result [1]: no binding
binding result [2]: no binding
binding result [3]: no binding
binding result [4]: no binding
binding result [5]: no binding
binding result [6]: no binding
binding result [7]: no binding
B1: GST alone (other)
chain: not shown
notes: Negative control of the pull-downs; also called control GST
